Test results published in PubChem BioAssay AID1460 (National Center for Advancing Translational Sciences (NCATS), 2008).
Values joined by “and” are separate entries in the source; they are usually repeats but may differ in a detail not shown here. Equal values may be shown once. Hit rate of the full screen: of about 270,000 compounds, about 5,800 (2.1%) were called active. This list was built around the results that the source calls inconclusive (neither active nor inactive); the mix of calls is not that of the screen. The call rests on the fitted dose curve; in most records, active means well fitted inhibition curve with a large enough effect; inconclusive means small, poorly fitted or top-dose-only effect; inactive means flat fitted curve, though single readings scatter. Where the call is inconclusive, the potency comes from a doubtful curve fit.

Each molecule was assayed against Microtubule-associated protein tau (Homo sapiens) (UniProt P10636) (assay: qHTS for Inhibitors of Tau Fibril Formation, Thioflavin T Binding). Settings: recombinant tau K18 P301L (four-repeat tau fragment), heparin-induced fibrillization, ThT fluorescence; series mostly up to 57.4 µM; activity, negative = inhibition: at the top concentration.
Outline: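 K18 P301L tau (15 uM + 0.24 uM Alexa 594-tagged), heparin 20 uM, NaOAc pH 7, 6 h 37 C; ThT 30 uM, 1 h RT, ex 450/em 510 nm.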
Further: nearly all actives have a fitted effect of over 55% in size.
On the % scale 0 is the no-effect control and ±100 the full control effect; potency means the concentration at half of the fitted maximal effect; tags describe the fitted curve by direction and shape.

UniProt P10636, sequence (P10636 whole entry, looked up, the tested form may be a part): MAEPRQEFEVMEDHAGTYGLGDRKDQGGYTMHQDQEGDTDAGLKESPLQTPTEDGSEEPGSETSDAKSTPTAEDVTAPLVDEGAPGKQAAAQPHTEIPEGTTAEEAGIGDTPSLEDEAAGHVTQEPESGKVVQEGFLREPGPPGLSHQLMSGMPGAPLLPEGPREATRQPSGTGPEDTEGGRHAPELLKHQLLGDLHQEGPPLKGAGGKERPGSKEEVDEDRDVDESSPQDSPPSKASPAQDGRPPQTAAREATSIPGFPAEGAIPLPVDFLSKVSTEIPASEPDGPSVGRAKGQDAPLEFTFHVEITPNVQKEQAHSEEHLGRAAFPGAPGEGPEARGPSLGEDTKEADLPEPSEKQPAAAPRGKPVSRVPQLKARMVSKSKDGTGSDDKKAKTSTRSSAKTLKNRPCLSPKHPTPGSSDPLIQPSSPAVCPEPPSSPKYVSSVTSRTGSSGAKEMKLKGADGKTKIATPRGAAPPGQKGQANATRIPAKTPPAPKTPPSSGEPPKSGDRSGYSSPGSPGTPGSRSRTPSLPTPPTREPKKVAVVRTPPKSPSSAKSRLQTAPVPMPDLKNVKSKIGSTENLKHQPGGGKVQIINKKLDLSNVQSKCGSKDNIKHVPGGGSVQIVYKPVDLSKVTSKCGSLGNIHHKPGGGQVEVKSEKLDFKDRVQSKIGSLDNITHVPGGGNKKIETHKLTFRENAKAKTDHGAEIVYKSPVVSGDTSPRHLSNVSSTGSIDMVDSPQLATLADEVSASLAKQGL

| Compound | activity, negative = inhibition | Potency |
| --- | --- | --- |
| O=C(CN(c1ccccc1)S(=O)(=O)c1ccccc1)N1CCN(Cc2ccc3c(c2)OCO3)CC1 | inactive: -4.3% | – |
| COC(=O)c1cnn(-c2ccc(C)c(C)c2)c1-n1cccc1 | – | inconclusive: 35.5 µM [inhibitor, partial curve, poor fit] |
| Cc1nn(C)c(C)c1/C=C/C(=O)c1ccc(Cl)cc1Cl | – | inconclusive: 25.1 µM [inhibitor, single point] |
| Cc1nn2c(nc1=O)SCC(c1ccccc1)=N2 | – | inconclusive: 39.8 µM [inhibitor, single point] |
| O=[N+]([O-])c1cccc(-c2ccc(SCc3ccccn3)nn2)c1 | – | inconclusive: 11.2 µM [inhibitor, partial curve] |
| CCOc1ccccc1NC(=O)CCc1c(C)nn(-c2ccc(N3CCCCC3)nn2)c1C | – | inconclusive: 15.8 µM [inhibitor, partial curve, poor fit] |
| O=C(NCc1ccccn1)c1cnc2sccn2c1=O | – | inconclusive: 31.6 µM [inhibitor, single point] |
| COCCCNC(=O)CSc1nc2c(sc3ccccc32)c(=O)n1CCc1ccc(OC)c(OC)c1 | inactive: 1.07% | – |
| COc1ccc(-n2c(Cc3cccn3C)nnc2SCC(=O)N2CCOCC2)cc1 | inactive: -2.16% | – |
| Cc1ccc(S(=O)(=O)N/N=C/c2ccc(O)cc2O)cc1[N+](=O)[O-] | – | inconclusive: 25.1 µM [inhibitor, partial curve] |
| O=C(Oc1ccc(Br)cc1C(=S)N1CCCCC1)c1cc([N+](=O)[O-])cc([N+](=O)[O-])c1 | – | inconclusive: 15.8 µM [inhibitor, partial curve] |
| Cc1ccc(CSc2nnc(-c3ccncc3)o2)c(C)c1 | – | inconclusive: 20 µM [inhibitor, partial curve] |
| COc1ccc(OC)c(C2CC(=O)Oc3c2c(=O)n(C)c2ccccc32)c1 (configuration not stated) | inactive: -12.2% | – |
| O=C(NCc1nc2ccccc2[nH]1)[C@H]1C[C@@H]1[C@H](NP(=O)(c1ccccc1)c1ccccc1)c1ccccc1 | – | inconclusive: 39.8 µM [inhibitor, single point] |
| O=C(CN(Cc1ccccc1)S(=O)(=O)c1ccc(F)cc1)NCCC1=CCCCC1 | – | inconclusive: 39.8 µM [inhibitor, single point] |
| CC(=NCCN1CCNCC1)C1=C(O)CC(C)(C)CC1=O | – | inconclusive: 15.8 µM [inhibitor, partial curve, poor fit] |
| O=c1oc(/C=C/c2ccccc2)nc2sc3c(c12)CCC3 | – | inconclusive: 1.12 µM [inhibitor, full curve, poor fit] |
| COc1ccc(Cl)cc1NC(=O)c1cn(C2CCCC2)c(=O)c2c1c1ccccc1n2C | inactive: -3.29% | – |
| CC[C@]1(O)C[C@@H]2CN(CCc3c([nH]c4ccccc34)[C@](C(=O)OC)(c3cc4c(cc3OC)N(C=O)[C@H]3[C@@](O)(C(=O)OC)[C@H](C(=O)OC)[C@@]5(CC)C=CCN6CC[C@]43[C@H]65)C2)C1 | – | inconclusive: 39.8 µM [inhibitor, single point] |
| CCN(CC)CC1CCN(c2ncc3ncnc(Nc4ccc(F)c(Cl)c4)c3n2)CC1 | – | inconclusive: 39.8 µM [inhibitor, single point] |
| O=C(COC(=O)c1ccc(O)cc1)NCC1CCCO1 (configuration not stated) | inactive: 0.038% | – |
| Cc1ccc(/C=C/C(=O)c2ccc(O)cc2)cc1 | – | inconclusive: 17.8 µM [inhibitor, partial curve] |
| Cc1cccc(OCCNc2cc(N3CCN(C)CC3)ccc2[N+](=O)[O-])c1 | – | inconclusive: 17.8 µM [inhibitor, partial curve] |

| Compound | activity, negative = inhibition | Potency |
| --- | --- | --- |
| O=C(Cn1cc(SCc2c(F)cccc2Cl)c2ccccc21)N1CCCC1 | inactive: -7.23% | – |
| Cc1[nH]c2ccccc2c1SCC(=O)N1CCCc2ccccc21 | – | inconclusive: 10 µM [inhibitor, partial curve] |
| O=C(c1ccc2c(=O)n(C3CCCC3)c(=S)[nH]c2c1)N1CCCCCC1 | inactive: -1.75% | – |
| Cc1sc2nc(C(C)Sc3n[nH]c(N)n3)[nH]c(=O)c2c1C (configuration not stated) | – | inconclusive: 39.8 µM [inhibitor, single point] |
| Cc1ccc(NC(=O)/C(Cl)=C\c2ccccc2)cc1 | inactive: -6.96% | – |
| Cc1cc(C(=O)OCc2nc3ccccc3s2)c(C)o1 | – | inconclusive: 20 µM [inhibitor, partial curve, poor fit] |
| O=c1nc(Nc2cccc(Cl)c2)oc2cc(Cl)oc(=O)c12 | – | inconclusive: 44.7 µM [inhibitor, single point] |
| CC(=O)N1CCN(c2ccc(NC(=S)NC(=O)COc3ccc(C(C)(C)C)cc3)cc2)CC1 | – | active: 3.98 µM |
| Cc1cc(NS(=O)(=O)c2ccc3oc(=O)c4ncn(C)c4c3c2)ccc1Br | – | inconclusive: 25.1 µM [inhibitor, single point] |
| C=C(C)COc1ccc(-c2nc(N)ncc2-c2ccc(OC)cc2)c(O)c1 | – | inconclusive: 31.6 µM [inhibitor, single point] |
| Nc1c(C(=O)NCCN2CCOCC2)c2nc3ccccc3nc2n1-c1ccccc1 | – | inconclusive: 28.2 µM [inhibitor, single point] |
| CC1=NN(C(N)=S)C(=O)C1N=Nc1c(C)cc(C)cc1C (configuration not stated) | – | active: 4.47 µM |
| COc1cc(/C=C2/C(C)=C(C#N)c3nc(N)c(C#N)c(C)c32)ccc1OCC(=O)O | – | active: 14.1 µM |
| CSc1nc(SCC(=O)O)c2sc3nc(-c4ccccc4)c4c(c3c2n1)CCC4 | – | inconclusive: 17.8 µM [inhibitor, partial curve, poor fit] |
| O=C(Oc1ccc2c(c1)OCC2=O)c1ccccc1 | – | inconclusive: 12.6 µM [inhibitor, partial curve] |
| CC(C)c1ccc(N2C(=O)CSC23C(=O)N(Cc2ccccc2)c2ccccc23)cc1 (configuration not stated) | inactive: 7.38% | – |
| CN1C[C@@H]2C(c3ccc(Cl)nc3)C3(c4cccnc4)CC2(C3)[C@H]1c1ccccc1 (some centres not stated) | – | inactive and inconclusive: 126 nM [inhibitor, full curve, poor fit] |
| CN1C=CC=C/C1=C1\SC(=S)N(CC(=O)O)C1=O | – | inconclusive: 17.8 µM [inhibitor, partial curve] |
| O=[N+]([O-])c1cccc(/C=N/Nc2nnc(-c3ccccc3)c(-c3ccccc3)n2)c1 | inactive: -5.39% | – |
| CCn1c(O)c(C(C#N)=C2N=c3ccccc3=N2)c2ccccc21 | – | inconclusive: 4.47 µM [inhibitor, full curve] |
| NNC(=O)c1cc(O)c(O)c(O)c1 | – | inconclusive: 4.47 µM [inhibitor, full curve] |
| CS(=O)(=O)NCCSCc1ccco1 | – | inconclusive: 39.8 µM [inhibitor, single point] |
| COc1ccccc1-n1c(SCC(=O)NCc2ccc3c(c2)OCO3)nc2cc([N+](=O)[O-])ccc21 | – | inconclusive: 7.08 µM [inhibitor, partial curve] |

| Compound | activity, negative = inhibition | Potency |
| --- | --- | --- |
| COc1ccc(CCNc2c3ccccc3nc3ccccc23)cc1OC | – | inconclusive: 39.8 µM [inhibitor, single point] |
| COc1ccccc1N1CCN(C(=O)c2ccc3[nH]c4c(c3c2)CC(C)CC4)CC1 (configuration not stated) | – | inconclusive: 28.2 µM [inhibitor, single point] |
| COc1ccccc1-n1c(CNC(=O)c2ccco2)nnc1SCC(=O)Nc1ccc(F)cc1 | inactive: 3.74% | – |
| Cc1cccc(CCN=c2c([N+](=O)[O-])nn(-c3ccccc3)n2O)c1 | – | inconclusive: 15.8 µM [inhibitor, partial curve] |
| O=c1nc2ccccc2c2n1CC(CN1CCN(C(c3ccccc3)c3ccccc3)CC1)N2 (configuration not stated) | – | inconclusive: 14.1 µM [inhibitor, single point] |
| Cc1ccccc1/C=N/Nc1nc2ccccc2[nH]1 | – | inconclusive: 15.8 µM [inhibitor, partial curve] |
| CCN(CC)c1ccc(/C=C2/C(=O)ON=C2C)cc1 | – | active: 8.91 µM |
| CCCC(CCC)C(=O)NC1CC(=O)N(c2ccc3c(c2)OCCO3)C1 (configuration not stated) | inactive: 4.32% | – |
| O=C(Nc1nnc(S(=O)(=O)N2CCc3ccccc32)s1)c1cccc(Cl)c1 | – | inconclusive: 2.24 µM [inhibitor, full curve] |
| Cc1cccc(NC(=S)NCc2ccc3[nH]c4c(c3c2)CCCC4)c1 | – | inconclusive: 15.8 µM [inhibitor, partial curve] |
| COc1ccc(C(N)=S)c(OC)c1 | inactive: -4.37% | – |
| C=Cc1ccc(CSc2cc(C)nc3nc(C)nn23)cc1 | inactive: -5.68% | – |
| N#CC(=C1N=c2ccccc2=N1)c1c(O)[nH]c2ccccc12 | – | inconclusive: 7.94 µM [inhibitor, partial curve] |
| CC(C)Nc1ccc(C(CC(N)=O)NC(=O)c2ccc(Br)cc2)cc1[N+](=O)[O-] (configuration not stated) | – | inconclusive: 15.8 µM [inhibitor, partial curve, poor fit] |
| Nc1ccc2[nH]ncc2c1 | – | inconclusive: 14.1 µM [inhibitor, partial curve] |
| CCCC[C@@H]1C[C@H]1C(NC(=O)c1ccco1)c1ccccc1 (some centres not stated) | inactive: -7.88% | – |
| CCOC(=O)c1cnc(-n2nc(C)cc2C)nc1NC1CCCC1 | – | inconclusive: 0.0501 µM [inhibitor, full curve, poor fit] |
| CCOC(=O)c1c(C)c(-c2ccccc2)n(CC(=O)NC(CC)Cc2ccccc2)c1C (configuration not stated) | inactive: -2.31% | – |
| CCCCN1C(=O)N(c2nnc(C(C)(C)C)s2)C(O)C1c1ccc(C)cc1 (configuration not stated) | – | inconclusive: 10 µM [inhibitor, partial curve] |
| COc1ccccc1Nc1nc(C)c(C(=O)Nc2ccccc2)s1 | – | inconclusive: 15.8 µM [inhibitor, partial curve] |
| CCN(CC)c1nc(N)c2c(N)nc3c(c2c1C#N)CC(c1ccccc1)O3 (configuration not stated) | – | inconclusive: 39.8 µM [inhibitor, single point] |
